Data taken from PMC4336329 (PLoS ONE, 2015).
Out of some 310,000 compounds screened, about 2,200 (0.71%) showed an effect of 50% or more. The effect is printed as a negative number. This is one part of the list.

molecular target: human ether-à-go-go-related gene (hERG) potassium channel (human, UniProt Q12809); experiment: primary screen, population patch clamp on CHO cells stably expressing hERG
Sequence (Q12809 whole entry, looked up): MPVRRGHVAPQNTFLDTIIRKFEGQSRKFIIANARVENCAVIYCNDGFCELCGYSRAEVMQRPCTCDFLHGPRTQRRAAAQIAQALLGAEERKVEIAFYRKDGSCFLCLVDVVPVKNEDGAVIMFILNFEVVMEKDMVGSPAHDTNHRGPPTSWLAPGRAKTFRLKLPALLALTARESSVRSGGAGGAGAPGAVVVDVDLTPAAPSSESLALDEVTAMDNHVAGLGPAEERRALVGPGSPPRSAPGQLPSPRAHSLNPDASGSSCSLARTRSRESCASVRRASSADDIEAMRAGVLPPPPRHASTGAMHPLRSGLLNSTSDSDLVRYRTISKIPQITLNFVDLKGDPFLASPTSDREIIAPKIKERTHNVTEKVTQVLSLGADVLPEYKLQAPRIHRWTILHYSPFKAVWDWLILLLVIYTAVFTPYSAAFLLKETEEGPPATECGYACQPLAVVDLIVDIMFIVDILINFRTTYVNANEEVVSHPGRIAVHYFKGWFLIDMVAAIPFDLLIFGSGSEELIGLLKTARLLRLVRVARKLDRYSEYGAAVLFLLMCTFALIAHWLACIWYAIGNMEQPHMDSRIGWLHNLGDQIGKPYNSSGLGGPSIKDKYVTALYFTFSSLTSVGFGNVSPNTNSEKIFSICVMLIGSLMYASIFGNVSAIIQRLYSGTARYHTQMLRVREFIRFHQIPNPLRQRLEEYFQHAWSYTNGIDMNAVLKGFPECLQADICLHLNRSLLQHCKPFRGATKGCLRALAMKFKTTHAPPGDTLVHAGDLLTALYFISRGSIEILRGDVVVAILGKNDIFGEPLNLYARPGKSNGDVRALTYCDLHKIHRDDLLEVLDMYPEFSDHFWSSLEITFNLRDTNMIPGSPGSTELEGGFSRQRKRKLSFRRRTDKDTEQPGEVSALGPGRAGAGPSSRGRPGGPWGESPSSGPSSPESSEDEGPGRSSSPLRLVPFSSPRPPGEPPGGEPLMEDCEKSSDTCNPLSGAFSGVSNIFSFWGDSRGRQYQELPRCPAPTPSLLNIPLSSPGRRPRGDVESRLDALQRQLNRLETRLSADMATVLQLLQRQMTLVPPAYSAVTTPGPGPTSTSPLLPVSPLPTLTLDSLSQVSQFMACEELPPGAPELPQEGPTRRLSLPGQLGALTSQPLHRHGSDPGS

Row | Structure (SMILES) | hERG current change (%, negative = inhibition) at 1uM
1 | N/C(=N\OC(=O)c1ccc(Cl)c(Cl)c1)c1cccnc1 | 7.02%
2 | NC(=O)N(CCC(=O)O)c1ccccc1 | 3.33%
3 | Cc1cc(Cl)c(OCCOCCN2CCCC(C)C2)c(Br)c1.O=C(O)C(=O)O (stereo not drawn) | -5.23%
4 | CCOC(=O)c1cccc(N2C(=O)C3C(C(=O)NC4CC4)C4(C)C=CC3(O4)C2C(=O)NC(C)(C)C)c1 (stereo not drawn) | 12.9%
5 | O=C(NCCN1CCN(C(=O)c2ccc(F)cc2)CC1)c1ccc(F)cc1 | -32%
6 | Cc1cccc(NC(=O)c2sc3nc(N4CCOCC4)c4c(c3c2N)CCCC4)c1 | 14.1%
7 | CCOC(=O)CSc1nc2ccccc2c(=O)n1CC1COc2ccccc2O1 (stereo not drawn) | 6.59%
8 | CCOC(=O)CNC(=O)CCc1nnc2ccc(N3CCC(C)CC3)nn12 | 7.35%
9 | Cc1cc(C)c(NS(=O)(=O)c2c(C(=O)N3CCOCC3)c(C)n(C)c2C)c(C)c1 | 4.5%
10 | COCCN(Cc1cc2cc(C)cc(C)c2nc1Cl)C(=O)Nc1ccccc1 | -0.791%
11 | COc1ccc(Cl)cc1C(=O)CSc1nnnn1C1CCCCC1 | 10.1%
12 | CC(C)c1ccc(NC(=O)c2ccc3c(c2)CCN3S(C)(=O)=O)cc1 | 2.05%
13 | Cc1ccc(S(=O)(=O)N2CCCC2C(=O)Nn2cnnc2)cc1 (stereo not drawn) | 11.7%
14 | O=C(NC1CCCCCCC1)c1ccc(Br)cc1 | 10.2%
15 | Cc1[nH]n(-c2ccccc2)c(=O)c1C(=O)Nc1ccccc1 | 2.94%
16 | Cc1ccc(CCN2CC(C(=O)NCc3ccc4c(c3)OCO4)CC2=O)cc1 (stereo not drawn) | -7.27%
17 | CC(=O)c1cccc(CN2CCN(CC(C)C)C(CCO)C2)c1 (stereo not drawn) | 9.75%
18 | CC(C)N=C(Nc1ccccc1)c1cccnc1 | -1.56%
19 | Cc1ccc(C23CC4CC(CC(CC(=O)N5CCOCC5)(C4)C2)C3)cc1 | -4.13%

Row | Structure (SMILES) | hERG current change (%, negative = inhibition) at 1uM
20 | CC(=O)c1cccc(NC(=O)C=C(C)C)c1 | 9.11%
21 | NC(=O)C(c1ccccn1)c1ncc(C(F)(F)F)cc1Cl (stereo not drawn) | 10.9%
22 | O=CC(Cl)P(=O)(N1CCCCC1)N1CCCCC1 (stereo not drawn) | 13.6%
23 | COc1ccc(N/N=C(/C(N)=O)C2=NC(C)(C)Cc3ccccc32)cc1 | 1.37%
24 | Cc1cc(C(=O)N(C2CCCCC2)C2CCCCC2)no1 | -3.84%
25 | [O-][n+]1c2c(nn1-c1ccc(Cl)c(Cl)c1)-c1nonc1CC2 | 11.3%
26 | C=CCN1C(=O)/C(=C\C=C2\N(C)c3ccccc3C2(C)C)SC1=S | -3.41%
27 | O=C(Nc1ncnc2c1CCC2)C12CC3CC(CC(C3)C1)C2 | 3.21%
28 | O=C1NC(=S)N/C1=C/c1ccc(Oc2ccc(C(F)(F)F)cc2[N+](=O)[O-])c(Cl)c1 | -0.0309%
29 | O=C(Nc1cccnc1)c1ccc(-c2ccc(Cl)cc2)o1 | 9.68%
30 | COCCCNC(=O)c1ccc(CS(=O)(=O)c2cccc(C(F)(F)F)c2)o1 | 12.3%
31 | O=C(NCCCN1CCCC1)c1ccc2c(c1)N(Cc1ccccc1)CCS2 | -41.7%
32 | Cc1cc2ccccn2c1C(=O)c1cccc([N+](=O)[O-])c1 | 3.87%
33 | CC(=O)N1CCOCCOCCOCC1 | 10.2%
34 | CCOC(=O)C(CC)n1cnc2c(nnn2-c2ccc(OC)cc2)c1=O (stereo not drawn) | -8.12%
35 | CCOc1cc(C(=O)OC(C)C(=O)Nc2ccc(NC(C)=O)cc2)ccc1OCC(=O)N1CCCCC1 (stereo not drawn) | 8.49%
36 | Cn1c(CNC2CCCCC2)nc2ccccc21 | -2.81%
37 | Cc1ccc(N2C(=O)CC(N3CCc4ccccc43)C2=O)cc1Cl (stereo not drawn) | 2.11%
38 | Cc1ccccc1C1N(c2nccs2)C(=O)C2CCCN21 (stereo not drawn) | -6.37%

Row | Structure (SMILES) | hERG current change (%, negative = inhibition) at 1uM
39 | COc1cc(/C=C2\CCc3c2nc2ccccc2c3C(=O)O)cc(OC)c1OC | 5.25%
40 | O=C(Cc1ccccc1)Nc1ccc2oc(-c3cccnc3)nc2c1 | 9.01%
41 | CCOc1ccccc1NC(=O)NC1CCN(CC(=O)Nc2ccc3c(c2)OCCO3)CC1 | -2.36%
42 | Cn1c(=O)c2c(SCC(=O)N3CCCc4ccccc43)nc(CC(C)(C)C)nc2n(C)c1=O | -4.66%
43 | O=C(NC1CC1)c1c(O)c2ccccc2[nH]c1=O | 11.1%
44 | COC(=O)c1ccc(C2NC(=O)c3c(sc(C)c3C)N2)cc1 (stereo not drawn) | 11.2%
45 | O=C(C(=O)N1CCN(Cc2ccccc2)CC1)c1c[nH]c2ccccc12 | 6.86%
46 | CCCCC(=O)NC(Nc1sc2c(c1C(N)=O)CCCC2)(C(=O)OCC)C(F)(F)F (stereo not drawn) | 11.8%
47 | COc1cc(NC(=O)C(C)Oc2ccccc2)cc(OC)c1 (stereo not drawn) | 8.32%
48 | CSCCC(NC(=O)c1ccccc1Cl)C(=O)NCCOc1ccccc1 (stereo not drawn) | 13.1%
49 | CCOc1ccc(NC(=O)/C(C=Nc2ccccc2)=C(\C)O)cc1 | 14.6%
50 | COc1ccc(N2C(=O)[C@H]3[C@@H](C2=O)C2c4ccccc4C=NN2[C@H]3C(=O)C(C)(C)C)cc1 (stereo partly drawn) | 12.5%
51 | Cc1nc2ccccc2n1CC(=O)c1ccccc1 | 9.12%
52 | Cn1c(Cc2ccc(Cl)cc2)nnc1SCC(=O)NC1CC1 | 0.064%
53 | COC(=O)c1ccccc1S(=O)(=O)N1CCC(NC(=O)c2ccccc2)CC1 | 12.1%
54 | Cc1ccc(CCc2nnc(SCC(=O)Nc3cccc(Cl)c3)n2-c2ccccc2)o1 | -18.3%
55 | NC1=NC[C@@H](Cc2ccc(O)cc2)N1CCc1cccc(F)c1 | 10.5%
56 | O=C(CCS(=O)(=O)c1cccc2nsnc12)N1CC(=O)N(CCc2ccccc2)C(=O)C1 | 3.13%
57 | Cc1ccc(Nc2nnc(C3C(=O)N(C)C4(C)CC3c3cc(Br)ccc3O4)s2)cc1 (stereo not drawn) | 9.37%
